In PubChem BioAssay AID485294 (National Center for Advancing Translational Sciences (NCATS), 2010):
In all, about 370,000 compounds went through this assay and about 150 (0.041%) were called active. The inconclusive results got no clear call from the source; some entries with a clear call stand among them for comparison. Calls follow the shape of the dose curve; as a rule, active = well fitted inhibition curve with a large enough effect; inconclusive = small, poorly fitted or top-dose-only effect; inactive = flat fitted curve, though single readings scatter. Potencies of inconclusive entries are left out as doubtful fits.

The molecules below were run against Beta-lactamase (Escherichia coli (strain K12)) (UniProt P00811) (assay: qHTS Inhibitors of AmpC Beta-Lactamase (assay with detergent)). Conditions: AmpC hydrolysis of nitrocefin, absorbance 480 nm, 0.01% Triton; series mostly up to 114 µM.
Sequence of UniProt P00811 (P00811 whole entry, looked up): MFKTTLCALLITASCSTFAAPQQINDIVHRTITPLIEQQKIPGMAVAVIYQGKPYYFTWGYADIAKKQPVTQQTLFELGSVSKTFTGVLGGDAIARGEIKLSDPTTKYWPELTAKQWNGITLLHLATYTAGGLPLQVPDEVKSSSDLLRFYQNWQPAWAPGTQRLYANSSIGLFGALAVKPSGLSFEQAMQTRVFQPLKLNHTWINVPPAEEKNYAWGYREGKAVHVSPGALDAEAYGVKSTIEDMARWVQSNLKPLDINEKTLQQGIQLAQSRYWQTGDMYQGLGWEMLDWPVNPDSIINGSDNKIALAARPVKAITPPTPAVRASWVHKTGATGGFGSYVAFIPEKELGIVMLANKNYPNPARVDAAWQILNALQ
Method in brief: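 20 mM phosphate pH 7.0 + 0.01% (detergent screen) or 0.0001% Triton X-100; 5.3 nM AmpC reagent; cpd preinc 15 min RT; nitrocefin (800 uM stock) to start; A480 q20 s × 4 min; Activity was normalised to no-enzyme and no-compound control wells.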
Also: nearly all actives have a fitted effect of over 25% in size.
Potency is read from the fitted curve at half-maximal effect; tags tell the direction and shape of the fitted curve.

Question: COC(=O)c1cc2oc(C)cc2n1CC(=O)Nc1cc(Cl)ccc1OC was tested. Which Potency did it give?
Answer: inactive

Question: For Cc1cccc(C(=O)OCC(=O)NC(=O)c2ccccc2)c1O, which Potency is on record?
Answer: inactive

Question: COc1ccc(-c2cc(C(F)F)n3ncc(C(=O)Nc4ccc(C(=O)N5CCOCC5)cc4)c3n2)cc1 was tested. Which Potency did it give?
Answer: inconclusive [inhibitor, single point]

Question: How did the Potency turn out when O=C(COc1ccc(Cl)cc1)NNC(=O)C(=O)N1CCCCC1 was run?
Answer: inconclusive [inhibitor, full curve, poor fit]

Question: With CCOC(=O)C(NC(=O)c1cccc(Cl)c1)(Nc1sc2c(c1C(N)=O)CCC2)C(F)(F)F (configuration not stated) as the molecule, how does the Potency read?
Answer: inconclusive [inhibitor, single point]

Question: COc1ccc(S(=O)(=O)N2CCN(CC(=O)Nc3ccc(Cl)c(C(F)(F)F)c3)CC2)cc1 was tested. Which Potency did it give?
Answer: inactive

Question: Which Potency does the source give for Cc1ccc(Cn2ncc3c(NCCCN(C)C)ncnc32)cc1 here?
Answer: inconclusive [inhibitor, full curve, poor fit]

Question: Which Potency does the source give for O=C(Nc1ccc(Cc2ccncc2)cc1)c1cccc([N+](=O)[O-])c1 here?
Answer: inconclusive [inhibitor, full curve, poor fit]

Question: O=S(=O)(NCc1cccnc1)c1ccc(Cl)nc1 was tested. Which Potency did it give?
Answer: inconclusive [inhibitor, partial curve]

Question: O=C(CCn1c(=O)c2ccccc2n(Cc2ccccc2)c1=O)NCc1ccc2c(c1)OCO2 was tested. Which Potency did it give?
Answer: inconclusive [inhibitor, full curve, poor fit]

Question: With COc1ccc(OCC(=O)NNC(=O)c2nn(C)c(=O)c3ccccc23)cc1 as the molecule, how does the Potency read?
Answer: inconclusive [inhibitor, partial curve, poor fit]

Question: How did the Potency turn out when COC(=O)C(NS(=O)(=O)c1cccc(S(=O)(=O)NC(C(=O)OC)c2ccccc2)c1)c1ccccc1 (configuration not stated) was run?
Answer: inconclusive [inhibitor, full curve, poor fit]

Question: How did the Potency turn out when COC(=O)c1sccc1NC(=O)CSCC(=O)O was run?
Answer: inconclusive [inhibitor, full curve]

Question: How did the Potency turn out when O=C(c1ccco1)c1cc2c(ccc3ccccc32)oc1=O was run?
Answer: inconclusive [inhibitor, single point]

Question: COC(=O)c1sc(-c2ccccc2)cc1NC(=O)c1cc(OC)cc(OC)c1 was tested. Which Potency did it give?
Answer: inconclusive [inhibitor, full curve, poor fit]

Question: For CCC(C)NC(=O)CSc1nc2ccccc2c(=O)n1-c1c(C)n(C)n(-c2ccccc2)c1=O (configuration not stated), which Potency is on record?
Answer: inactive

Question: N#CCn1nnc(-c2ccc3c(c2)OCO3)n1 was tested. Which Potency did it give?
Answer: inconclusive [inhibitor, full curve, poor fit]
